This assay addresses V5 epitope-tagged wild-type epidermal growth factor receptor (EGFR) (UniProt P00533). Nature of the assay: proximity ligation.

With “S2056A-mutated DNA-PKcs ([…]A) (a stretch of the chain, chain not printed) (enzyme)”, the fold IR-induced increase in nuclear PLA complexes relative to untreated cells came to 40 fold.

These data come from PMC3475795.
